# Assay results: PubChem BioAssay AID1345082 (National Center for Advancing Translational Sciences (NCATS), 2018)
# Among all 94,000 compounds or so, about 4,000 (4.3%) were called active. The shares of active, inactive and inconclusive entries below differ from those in the screen. Calls come from the whole dose curve; as a rule, active = well fitted inhibition curve with a large enough effect; inconclusive = small, poorly fitted or top-dose-only effect; inactive = no such curve, though single readings can be large or run the other way. Potencies beside an inconclusive call are fits to weak or partial responses and may not hold up.
# Test: Cytotoxic Profiling in NIH 3T3 Cell Line of Diverse Libraries Using Quantitative High-Throughput Screening; note: nearly all actives have a fitted effect of over 55% in size
# Conditions: NIH 3T3 viability, CellTiter-Glo ATP luminescence, 48-72 h; activity change, negative = cytotoxicity: at 96.7 µM (top of the series); series mostly up to 96.7 µM
# In short: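 ATP-dependent luminescence (CellTiter-Glo) served as the viability signal for NIH 3T3 cells treated with compound for 48 or 72 hr at 37 °C.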
# % is set by controls: 0 for no effect and ±100 for the full control effect; potency is the fitted concentration of half-maximal effect; tags give direction and shape of the fitted curve.
Compound,"activity change, negative = cytotoxicity",Potency,outcome
CCN1CCN(C(=O)C2CCCN(c3ccnc4ccnn34)C2)CC1 (stereo not given),inactive: -15.2%,–,–
O=C(NCCN1CCOCC1)c1cn2cc(-c3cccc(C(F)(F)F)c3)sc2n1,–,"inconclusive: 44.7 µM [inhibitor, partial curve, poor fit]",–
COc1ccc(C(=O)N2CCCC(C(=O)NCc3ccccc3)CCNC(=O)CC2)c(OC)n1 (stereo not given),inactive: -13.2%,–,–
COCC1CN(C)CC12CCN(C(=O)CCc1cccc(OC)c1)CC2 (stereo not given),inactive: -14.6%,–,–
CC(C)C1=NOC2(CCCN(C(=O)c3ccc4c(c3)OCO4)C2)C1 (stereo not given),inactive: 3.75%,–,–
COc1ccc(-n2nc3n(c2=O)CCN(Cc2cccn2C)C3)cc1,inactive: -24.5%,–,–
Cc1nccc(N2CCC(Oc3cnc4c(ccn4CCN[S+](C)(=O)[O-])c3)CC2)n1,–,"inconclusive: 15.8 µM [inhibitor, full curve, poor fit]",–
O=S1(=O)CCN(c2cccc(-c3nc(C4CCOC4)no3)c2)CC1 (stereo not given),inactive: 2.31%,–,–
CCc1nc2c(c(-c3ccc(OC)cc3)n1)CCN([S+](=O)([O-])c1ccccc1)CC2,–,"inconclusive: 39.8 µM [inhibitor, partial curve]",–
O=C(Nc1cnc(-c2ccc(Cl)cc2)nc1)c1cccs1,inactive: 0.0443%,–,–
Cn1ncc2c(C(=O)Nc3ccccc3Cl)cc(-c3ccccc3F)nc21,inactive: -29.9%,–,–
COc1ccc(-c2ccc3c(n2)CNC(=O)CO3)cc1F,–,"inconclusive: 28.2 µM [inhibitor, single point]",–
CCn1cc(-c2ccc(Cl)cc2)cc1C(=O)NCCCN1CCCC1=O,–,"inconclusive: 50.1 µM [inhibitor, partial curve, poor fit]",–
COc1cccc([C@@H]2CN(CC3CCOCC3)C[C@H]2C(=O)O)c1OC,inactive: -8.28%,–,–
CN1CCCCCCN(S(=O)(=O)c2ccc3c(c2)CCC3)[C@H]2CCC[C@H]2C1=O,–,"inconclusive: 50.1 µM [inhibitor, partial curve, poor fit]",–
CCCn1ccnc1CN1CCCC12CCN(c1ccc(C(F)(F)F)cn1)CC2,–,"inconclusive: 44.7 µM [inhibitor, partial curve, poor fit]",–
O=[N+]([O-])c1ccccc1CN1C[C@H](O)C[C@H]1c1nc(Cc2ccc(F)cc2Cl)no1,–,"inconclusive: 112 µM [inhibitor, partial curve, poor fit]",–
COc1cccc(N2C(=O)NC(=NC3CCCC3)C23CCCN(CCC(C)C)C3)c1 (stereo not given),–,active: 31.6 µM,–
CCOc1cc(C(=O)N2CCC[C@H]2c2nc(-c3ccc(OC)cc3)no2)cc(OCC)c1OCC,–,"inconclusive: 44.7 µM [inhibitor, partial curve, poor fit]",–
COC1CN(C2CCN(C(=O)c3cccc4[nH]ccc34)CC2)C12CCOCC2 (stereo not given),inactive: -10.5%,–,–
Cc1ccc(C(=O)N2CCC3(CC2)NC(=O)N(c2cccc(F)c2)N3)s1,–,"inconclusive: 44.7 µM [inhibitor, partial curve, poor fit]",–
COc1ccc(-c2noc(CC3CCN(C(=O)Cc4ccc(OC)c(Cl)c4)CC3)n2)cc1,–,"inconclusive: 44.7 µM [inhibitor, partial curve, poor fit]",–

Compound,"activity change, negative = cytotoxicity",Potency,outcome
O=C(c1ccc(-c2ccc(N3CCSCC3)nc2)cc1)N1CCCCC1,–,active: 35.5 µM,–
COc1cccc(C(=O)N2CCc3nc(-c4ccccc4)nc(-c4ccc(Cl)cc4)c3C2)c1,–,"inconclusive: 39.8 µM [inhibitor, partial curve]",–
COCCN1CCN(C[C@@H]2C=C(C)[C@H](Cc3nnc(-c4ccc(OC)cc4)o3)C[C@H]2C(C)C)CC1,–,active: 39.8 µM,–
Cc1cnc(CCNS(=O)(=O)Cc2ccccc2F)n1Cc1ccccc1,inactive: -26.8%,–,–
O=C1Nc2ccc(-c3cccc(C(F)(F)F)c3)cc2C(=O)N2CCN(C(=O)c3ccco3)C[C@@H]12,–,"inconclusive: 50.1 µM [inhibitor, partial curve, poor fit]",–
CCc1nc2cc(N3CCCC(C(=O)NC4CCCC4)C3)cnc2nc1CC (stereo not given),inactive: -25.2%,–,–
Cc1ccc(-c2cn(CC3CCCN(c4cc(C)nc(N)n4)C3)nn2)cc1 (stereo not given),–,"inconclusive: 50.1 µM [inhibitor, partial curve, poor fit]",–
c1ccc(CCCN[C@H]2CO[C@H]3[C@@H]2OC[C@@H]3n2cc(-c3ccccc3)nn2)cc1,–,"inconclusive: 100 µM [inhibitor, partial curve, poor fit]",–
COc1ccc(NC(=O)O[C@@H]2CO[C@H]3[C@@H]2OC[C@@H]3n2nnnc2SCc2ccco2)cc1,inactive: -16.2%,–,–
COc1ccc(Cl)cc1-c1ccc2c(c1)C(=O)N1CC[C@H](NC(=O)c3cccs3)[C@H]1C(=O)N2,–,"inconclusive: 39.8 µM [inhibitor, full curve, poor fit]",–
Cc1cc2nc3n(c(=O)c2n1CC(=O)Nc1ccc2c(c1)OCCO2)CCCC3,inactive: -19.2%,–,–
CCNc1ncc(CN2CCN(c3ccncc3)CC2)cn1,–,–,inactive
C1=C(c2nc(-c3ccncc3)cc3c2ccn3Cc2cccnc2)CCOC1,–,active: 22.4 µM,–
COc1ccc(C)cc1NC(=O)CN1C(=O)NC2(CCC(C(C)(C)C)CC2)C1=O (stereo not given),–,"inconclusive: 56.2 µM [inhibitor, partial curve, poor fit]",–
CC1=C[C@@H](CNC(=O)c2ccccc2)[C@H](C(C)C)C[C@H]1Cc1nc2ccccc2n1C,–,active: 31.6 µM,–
O=c1c2nc(Nc3ccc(C(F)(F)F)cc3)ccc2ncn1C1CC1,–,"inconclusive: 56.2 µM [inhibitor, partial curve, poor fit]",–
Cc1ccc(Nc2ccnc(N3CCCC(C(=O)NCc4cccc(Cl)c4)C3)n2)cc1 (stereo not given),–,"inconclusive: 35.5 µM [inhibitor, partial curve]",–
CC(C)c1ccc(CC(=O)N2CCCc3ncc(C(=O)NCCc4ccccn4)cc32)cc1,–,"inconclusive: 50.1 µM [inhibitor, partial curve, poor fit]",–
CN(C)c1ccc(CN2Cc3[nH]cnc3C[C@H]2c2nc(-c3ccccc3)no2)cc1,–,"inconclusive: 89.1 µM [inhibitor, partial curve, poor fit]",–
CN1C(=O)CO[C@H]2CN(Cc3ccc(Cl)cc3)C[C@H]21,–,"inconclusive: 112 µM [inhibitor, partial curve, poor fit]",–
COc1ccc(CNC(=O)Cn2ccn3nc(-c4ccc(F)cc4)c(CO)c3c2=O)cc1OC,–,"inconclusive: 44.7 µM [inhibitor, partial curve, poor fit]",–
Cc1nc(-c2ccc(OC3CCN(C(=O)NC4CCCCC4)C3)cc2)no1 (stereo not given),–,"inconclusive: 35.5 µM [inhibitor, partial curve]",–

Compound,"activity change, negative = cytotoxicity",Potency,outcome
COc1ncccc1-c1cc(-c2ccc(=O)[nH]c2)c2cncn2c1,–,"inconclusive: 11.2 µM [inhibitor, full curve, poor fit]",–
Cc1nc(-c2c3n(c(=O)n(CC(=O)Nc4ccc(Cl)cc4)c2=O)CCCCC3)no1,inactive: -11.6%,–,–
COc1ccccc1CN1Cc2cc(NC(=O)c3ccc([N+](=O)[O-])cc3)ccc2OC(C)C1=O (stereo not given),–,"inconclusive: 35.5 µM [inhibitor, partial curve]",–
COc1ccccc1-n1c(=O)c(C(=O)N2CCN([S+](=O)([O-])c3cccs3)CC2)nc2cccnc21,inactive: 4.07%,–,–
COc1ccc(-c2nc3c(c(-c4ccccc4)n2)CN(C(=O)c2cccc(Cl)c2)CC3)cc1,–,"inconclusive: 35.5 µM [inhibitor, partial curve, poor fit]",–
O=C(NCCc1ccccc1)C1CCCN(Cc2cccc(-c3ccsc3)c2)C1 (stereo not given),–,active: 39.8 µM,–
COc1ccc(-c2nc(C)nc3c2CCN(C(=O)c2ccccc2)CC3)cc1,–,"inconclusive: 56.2 µM [inhibitor, partial curve, poor fit]",–
Cc1cnc(C(=O)NC2C[C@H]3CC[C@@H](C2)N3C(=O)Cc2ccccc2)cn1 (stereo not given in full),inactive: -11.9%,–,–
CCc1nc2c(c(-c3ccc(OC)cc3)n1)CCN(C(=O)c1ccc(OC)cc1)CC2,–,"inconclusive: 39.8 µM [inhibitor, partial curve]",–
Cc1ccc(C2Cn3nnc(C(=O)N4CCC(C(=O)NCCCc5ccccc5)CC4)c3CO2)cc1 (stereo not given),–,–,inactive
O=C(N1CCCCC1)N1CCn2c(nnc2-c2cncc(Br)c2)C1,–,"inconclusive: 63.1 µM [inhibitor, single point]",–
CCN1CCN(CC(=O)NCc2ccc3[nH]c(-c4ccc(F)cc4)c(C)c3c2)CC1,–,active: 22.4 µM,–
Fc1cccc(-c2cnc([C@@H]3COCCN3Cc3ccc(Cl)cc3)[nH]2)c1,–,"inconclusive: 56.2 µM [inhibitor, partial curve, poor fit]",–
COc1cccc(N2C(=O)NC(=NC3CCCCC3)C23CCN(Cc2cccnc2)C3)c1 (stereo not given),–,"inconclusive: 17.8 µM [inhibitor, full curve, poor fit]",–
COCC(=O)NC1CCC12CCN(C(=O)c1ccco1)CC2 (stereo not given),inactive: 0.731%,–,–
COCCNC(=O)c1nc(-c2ccsc2)c2ccccn12,inactive: -18.1% [at 138 µM],–,–
O=C1CC(c2ccccc2)N(Cc2ccncc2)CCCN(C(=O)c2ccc3ncccc3c2)CCN1 (stereo not given),–,"inconclusive: 44.7 µM [inhibitor, partial curve, poor fit]",–
CSc1ccc(CNC(=O)c2ccc3c(c2)N(C)C2CCCCN2C3=O)cc1 (stereo not given),inactive: -22.8%,–,–
COc1cccc(CNC(=O)CN2C(=O)NC3(CCC(C(C)(C)C)CC3)C2=O)c1 (stereo not given),–,"inconclusive: 50.1 µM [inhibitor, partial curve, poor fit]",–
Cc1ccc(OCc2nc(C3CCCN3C(=O)Nc3ccccc3)no2)cc1 (stereo not given),–,"inconclusive: 44.7 µM [inhibitor, partial curve, poor fit]",–
CC1(c2cccnc2)N(Cc2ccccc2)C(=O)OC12CCN(C(=O)Cc1ccc3c(c1)OCO3)CC2 (stereo not given),–,"inconclusive: 6.31 µM [inhibitor, full curve, poor fit]",–
